Measurements published in PubChem BioAssay (EPA / NIEHS).
Inconclusive results are not listed. Rule for the calls: active = hit-call score of the fitted dose curve at least 0.9, where 1 is the maximum; inconclusive = response in the unintended direction; inactive = score below 0.9. A number of entries come with more than one value. This list holds those alone. There may be further records. Values that stand side by side are repeated measurements (runs, samples, wells, individuals or studies).

Target: Estrogen receptor (Homo sapiens) (UniProt P03372)
Test: ATG_ERa_TRANS: Attagene TRANS-FACTORIAL HepG2 Assay for human Estrogen Receptor alpha (ERa) (AID 2282970)
Settings: HepG2 Attagene TRANS ERa GAL4 reporter, mRNA
In short: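 Liver-derived HepG2 cells expressing chimeric nuclear receptor-Gal4 proteins from transient transfection were exposed for 24 hours. Gain of reporter mRNA signal versus DMSO, read by capillary electrophoresis of FAM-labelled PCR products, was recorded.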

UniProt P03372, sequence (P03372 whole entry, looked up): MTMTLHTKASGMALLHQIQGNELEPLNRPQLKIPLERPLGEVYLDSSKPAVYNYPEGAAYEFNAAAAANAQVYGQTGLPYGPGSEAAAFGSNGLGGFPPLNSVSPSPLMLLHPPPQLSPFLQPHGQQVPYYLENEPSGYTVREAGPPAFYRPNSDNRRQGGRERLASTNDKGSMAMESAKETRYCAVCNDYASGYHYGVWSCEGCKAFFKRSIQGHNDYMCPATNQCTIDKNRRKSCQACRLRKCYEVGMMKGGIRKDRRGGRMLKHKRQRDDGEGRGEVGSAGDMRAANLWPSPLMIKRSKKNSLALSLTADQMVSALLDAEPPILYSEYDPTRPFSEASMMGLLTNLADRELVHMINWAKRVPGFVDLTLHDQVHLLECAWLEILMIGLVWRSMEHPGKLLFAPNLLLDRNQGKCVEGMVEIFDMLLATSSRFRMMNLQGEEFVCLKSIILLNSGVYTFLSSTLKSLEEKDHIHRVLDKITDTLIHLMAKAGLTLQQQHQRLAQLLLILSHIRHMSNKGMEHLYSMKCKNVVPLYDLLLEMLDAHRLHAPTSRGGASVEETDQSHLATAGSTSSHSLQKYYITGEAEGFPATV

Q: With CCCCCCCc1ccc(O)cc1 as the molecule, how does the AC50 read?
A: active: 1.95, 1.39, 4.6, 5.14 µM [separate samples]
